# The full ranking holds about 110,000 compounds; the median of “z-score” is about -0.1, and the highest 2% start at about 2. Some of the results follow. The source made the active and inactive calls.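 The calls were made as follows: active = z-score in the third read window above 3 or below -3; inactive = the rest.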
# Target: Metabotropic glutamate receptor 8 (Rattus norvegicus) (UniProt P70579)
# Assay: rat mGluR8 modulators via GIRK flux, primary screen, cell-based, thallium flux, HTS (AID 488969)
# Settings: HEK293 rat mGluR8, GIRK (G protein-gated inwardly rectifying potassium channel) thallium flux, FluoZin2; at 10 µM; stronger effect = higher value; submaximal glutamate (EC20) added with thallium
# Chain of UniProt P70579 (P70579 whole entry, looked up): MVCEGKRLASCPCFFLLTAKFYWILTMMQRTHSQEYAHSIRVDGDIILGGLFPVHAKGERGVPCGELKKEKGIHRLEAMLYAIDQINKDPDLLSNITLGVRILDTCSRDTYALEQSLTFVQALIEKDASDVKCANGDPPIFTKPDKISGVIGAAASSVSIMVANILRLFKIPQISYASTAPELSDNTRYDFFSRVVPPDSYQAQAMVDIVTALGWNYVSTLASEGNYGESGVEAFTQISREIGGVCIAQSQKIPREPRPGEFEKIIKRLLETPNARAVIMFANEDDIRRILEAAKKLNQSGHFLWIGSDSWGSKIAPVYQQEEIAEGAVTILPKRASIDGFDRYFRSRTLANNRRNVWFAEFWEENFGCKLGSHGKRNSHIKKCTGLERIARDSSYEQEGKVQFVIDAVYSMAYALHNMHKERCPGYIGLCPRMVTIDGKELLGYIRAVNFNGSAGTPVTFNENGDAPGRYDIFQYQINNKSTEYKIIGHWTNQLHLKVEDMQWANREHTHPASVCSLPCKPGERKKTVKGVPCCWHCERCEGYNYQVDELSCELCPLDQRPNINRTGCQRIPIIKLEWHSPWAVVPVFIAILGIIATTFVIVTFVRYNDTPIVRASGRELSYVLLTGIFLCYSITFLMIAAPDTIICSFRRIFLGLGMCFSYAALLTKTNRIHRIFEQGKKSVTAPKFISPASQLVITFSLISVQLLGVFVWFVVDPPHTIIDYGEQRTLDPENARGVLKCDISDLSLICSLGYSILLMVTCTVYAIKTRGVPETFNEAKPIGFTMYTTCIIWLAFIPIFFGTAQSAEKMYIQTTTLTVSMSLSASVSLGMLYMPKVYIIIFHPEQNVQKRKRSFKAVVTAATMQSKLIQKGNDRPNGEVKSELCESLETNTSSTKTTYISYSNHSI
row,Structure (SMILES),z-score
1,COc1cc(OC)cc(C(=O)OCC(=O)Nc2ccc(N3CCCCC3)cc2)c1,-0.189
2,OCCn1c(-c2ccc3c(c2)OCO3)csc1=Nc1ccccc1,0.143
3,Nc1nnc(SCC(=O)NC2CCCCC2)s1,0.00744
4,Cc1ccc(-c2cc(C(=O)Nc3ccccc3C)c3ccccc3n2)o1,0.279
5,O=C(CSc1nccn1-c1ccc(F)cc1)NCc1ccc2c(c1)OCO2,-0.24
6,COc1ccc(NCc2nnc(SCC(=O)c3ccc(C)cc3)o2)cc1,-0.148
7,CC(NC(=O)CSc1nc2ccccc2c(=O)[nH]1)c1ccccc1 (stereo not drawn),-0.0409
8,O=C1c2ccccc2C(=O)N1CC1CCCO1 (stereo not drawn),-0.587
9,NC(=O)CSc1oc(-c2cccs2)nc1S(=O)(=O)c1ccccc1,-0.275
10,COc1ccc(CCN2C(=O)c3cccc4cccc(c34)C2=O)cc1OC,0.603
11,O=C(Nc1ccc(S(=O)(=O)N2CCOCC2)cc1)c1ccco1,-0.64
12,O=C(Nc1cccc(Cl)c1)N1CCN(c2ncccn2)CC1,-0.84
13,CC(C)(C)NS(=O)(=O)c1ccc(CCC(=O)Nc2cc(Cl)ccc2Oc2ccccc2)cc1,0.0264
14,Cc1c(C)c2cc(Cl)c(O)c(CN3CCCCC3)c2oc1=O,-0.309
15,CCc1ccc(NC(=O)C(C)OC(=O)c2ccc(NS(=O)(=O)c3ccc(C)c([N+](=O)[O-])c3)cc2)cc1 (stereo not drawn),-0.191
16,COc1ccc(NC(=O)C2C3C=CC(O3)C2C(=O)NCc2cccnc2)cc1 (stereo not drawn),-0.947
17,O=C(Nc1ccc(Cl)cc1)NC1CCCCC1,0.269
18,CCN(CC)CCCn1c(=S)[nH]c2ncccc2c1=O,0.102
19,COCCn1cnc2c1c(=O)n(CC(=O)Nc1cc(C)on1)c(=O)n2Cc1ccccc1,0.148
20,COc1ccc(/C=N/NC(=O)c2[nH]nc3c2CCc2ccccc2-3)cc1OC,-0.649
21,Cc1ccc(C2C(C=Nc3c(C)n(C)n(-c4ccccc4)c3=O)=C(c3ccccc3)Oc3ccccc32)cc1 (stereo not drawn),-0.137
22,O=C(Nc1ccc(N2CCOCC2)cc1)Nc1ccc(Cl)c(Cl)c1,0.145

row,Structure (SMILES),z-score
1,CCC(CC)c1nnc(NC(=O)COc2ccc3c(C)cc(=O)oc3c2)s1,-0.14
2,CC(C)=C(NC(=O)c1ccccc1)C(=O)N/N=C/c1ccc(O)cc1,-0.419
3,CCOc1ccccc1NC(=O)CN(C)S(=O)(=O)c1cccc2nsnc12,-0.173
4,CCN(CC(=O)Nc1ccc2c(c1)OCCO2)CC(=O)Nc1cc(C)on1,-0.0204
5,O=C(CCc1ccc(S(=O)(=O)NC2CCCCC2)cc1)Nc1ccccc1,0.111
6,COc1ccc(C=O)cc1COc1ccc(Cl)cc1[N+](=O)[O-],-0.077
7,CCOC(=O)C1CCCN(C(=O)Cn2sc3nc(C)cc(C)c3c2=O)C1 (stereo not drawn),2.2
8,Cc1cc(C)nc(-n2nc(C)c(Sc3ccc(F)cc3)c2N)n1,-1.19
9,Cc1cc(C)cc(N(C(=O)c2sc(C)nc2C)C(C(=O)NCc2ccco2)c2ccccc2)c1 (stereo not drawn),-0.165
10,Cc1cc(NC(=O)c2ccc(Cn3nc(C)c(Br)c3C)o2)no1,-0.686
11,COc1cc(S(=O)(=O)N(CCc2ccccc2)Cc2cccs2)ccc1-n1cnnn1,0.146
12,CCCNC(=O)N(C)c1nncnc1C(=O)NC,0.0642
13,Cn1c(=O)c(C(=O)CSc2nnc(Nc3ccccc3)s2)c(N)n(Cc2ccccc2)c1=O,-0.199
14,CN(Cc1ccccc1)c1nc2c(c(=O)[nH]c(=O)n2C)n1C,0.107
15,CC(=O)C1=C(C)NC(SCC(=O)c2ccc(Cl)cc2Cl)=C(C#N)C1c1ccco1 (stereo not drawn),-2.68
16,CC(C(=O)N1CCc2ccccc21)N1CCc2ccccc2C1 (stereo not drawn),-0.627
17,COC(=O)c1ccc(COC(=O)c2ccc(SC)cc2OC)cc1,-0.178
18,O=C(O)C1C2C=CC(C2)C1C(=O)NCc1ccoc1 (stereo not drawn),-0.258
19,c1ccc(Oc2nnc(-c3cccs3)c3ccccc23)cc1,-0.0698
20,Cc1ccc(Cl)cc1NC(=O)COC(=O)c1ccc(COc2ccc3c(C)cc(=O)oc3c2)cc1,0.734
21,CCN1CCN(c2ccc(NC(=O)COc3ccccc3Cl)cc2)CC1,0.599
22,CCCN(CCC)C(=O)CSc1nc2ccsc2c(=O)n1NC(=O)c1ccccc1,0.146

row,Structure (SMILES),z-score
1,CCn1c(SCc2nc3ccccc3s2)nnc1-c1cccs1,0.633
2,Cc1nc(NC(=O)CC(C)C)sc1-c1csc(Nc2ccc(Cl)cc2)n1,0.0734
3,CC1CC(=O)c2cnc(N)nc2C1 (stereo not drawn),-0.0715
4,CCOC(=O)C1CCCN(C(=O)c2cn(CC)c3ccc(S(=O)(=O)N(C)C)cc3c2=O)C1 (stereo not drawn),-0.191
5,CCOC(=O)N1CCN(C(=O)CCSc2ccc(Cl)cc2)CC1,-0.00941
6,Cc1c(/C=C/C(=O)c2ccc(O)cc2)cnn1C,0.00575
7,COc1ccc(NC(=O)c2ccccc2[N+](=O)[O-])cc1,-0.084
8,COc1ccc(Cl)cc1NC(=O)c1ccco1,-0.426
9,O=C(ONC1=NCCCCC1)c1ccc(Cl)cc1,0.263
10,O=C1CC(c2ccncc2)c2cc3c(cc2N1)OCO3 (stereo not drawn),0.106
11,COc1ccc(CNC(=O)Cc2csc(Nc3nc(=S)[nH]c4ccccc34)n2)cc1,active: 8.83
12,NS(=O)(=O)c1ccc(CNC(=O)NC23CC4CC(CC(C4)C2)C3)cc1,0.0645
13,CCOC(=O)N1CCC(NC(=O)c2cc3c(=O)n(C)c4ccccc4c3n2C)CC1,-0.597
14,CN(C(=O)CSc1nc(-c2ccccc2)cs1)C1CCS(=O)(=O)C1 (stereo not drawn),0.052
15,O=C(COc1ccccc1[N+](=O)[O-])N/N=C/c1ccc(OC(=O)c2ccco2)cc1,-0.205
16,COC(=O)C1C(c2ccccc2)C(C(=O)OCc2ccco2)C1c1ccccc1 (stereo not drawn),-0.315
17,CC(C)c1nc(SCc2ccccn2)c2c(=O)n(C)c(=O)n(C)c2n1,-0.406
18,Cc1ccc(Nc2nc(N)nc(CSc3ncccn3)n2)cc1,-0.0719
19,Cc1ccc(-c2nn(C)c(=O)c3ccccc23)cc1CNC(=O)Cn1nc(-c2ccccc2)c2ccccc2c1=O,0.228
20,COCCn1c(SCC(=O)Nc2cccc(OC)c2)nnc1-c1ccccc1,-0.0116
21,COCCn1c(SC(C)C(=O)Nc2ncc(Cl)cc2Cl)nc2ccccc21 (stereo not drawn),-0.715
22,COc1ccc(-c2cc(C(F)(F)F)nc(-n3cc(Br)cn3)n2)cc1,0.00444

row,Structure (SMILES),z-score
1,O=C(Cn1c(-c2ccccc2)noc1=O)Nc1ccc(S(=O)(=O)N2CCOCC2)cc1,-0.436
2,CCN(CCCNC(=O)C1CCN(S(=O)(=O)c2cnc[nH]2)CC1)c1ccccc1,0.524
3,O=C(NCC1CCCO1)c1cccc(F)c1 (stereo not drawn),0.371
4,CCCc1nnc(NC(=O)COC(=O)c2cc(C)nc3ccccc23)s1,-2.17
5,Cc1cc(Oc2ccc(Cl)cc2)nc(-c2ccccc2O)n1,0.0564
6,FC(F)(F)c1nnc(-c2ccccc2)nc1Sc1ccc(Cl)cc1,-0.153
7,CCc1cc(C)cc(OCCNC(=O)c2cncc(Br)c2)c1,-0.232
8,CCOC(=O)C(C)Oc1ccc(C2NC(=O)NC(C)=C2C(C)=O)cc1Br (stereo not drawn),-0.0567
9,CCC(=O)Nc1ccc(NC(=S)NC(=O)Cc2ccccc2)cc1,-0.137
10,Cc1sc(-n2cccc2)c(C(=O)O)c1C,0.57
11,Cc1ccc(N=C/C(C(=O)C(F)(F)F)=C(\O)c2ccco2)cc1Cl,-0.586
12,O=C(O)CNc1nc(-c2ccccc2)nc2ccccc12,-0.364
13,Cc1c(N(C)C(=O)c2ccco2)c(=O)n(-c2ccccc2)n1C,0.117
14,COc1ccc(C)cc1S(=O)(=O)Nc1ccc(F)cc1,-0.036
15,O=c1c(C=Nc2ccc(Cl)cc2)c[nH]n1-c1cccc(Cl)n1,0.0943
16,CC1CCN(CC(=O)Nc2ccccc2-c2ccccc2)CC1,0.156
17,CCCCCOc1ccc(Cn2ccnc2)cc1[N+](=O)[O-],-0.465
18,COC(=O)c1n[nH]c2ccccc12,-0.241
19,COc1ccc(CC(=O)Nc2c3c(nn2-c2cccc(Cl)c2)CS(=O)(=O)C3)cc1,-0.191
20,CCOC(=O)c1ccccc1NC(=O)N1CCn2c(C)ccc2C1CC (stereo not drawn),-0.523
21,O=C1C2Sc3[nH]c(=O)sc3C(c3ccccc3)C2C(=O)N1c1ccc(Cl)cc1 (stereo not drawn),0.118
22,CCN(CC)CCCNC(=O)C1CCCN(c2nnc(N3CCCC3=O)s2)C1 (stereo not drawn),-0.048

row,Structure (SMILES),z-score
1,O=C(c1cc(-c2ccc(O)cc2)on1)N1CCc2ccccc2C1,-0.857
2,COc1ccc(NC(=S)N2CCN(c3ccccn3)CC2)cc1,-0.0875
3,COc1nc(OCC#N)nc(N(C)C)n1,0.0977
4,Cc1ncc([N+](=O)[O-])n1CCOC(=O)NC(NCc1ccccc1)C(Cl)(Cl)Cl (stereo not drawn),-0.109
5,O=C(COC(=O)Cc1c(Cl)cccc1Cl)Nc1ccc(OC(F)(F)F)cc1,0.262
6,COC(=O)c1ccccc1NC(=O)c1c(Br)cnn1C,0.28
7,O=c1c2c(-c3cccs3)csc2[nH]c(=S)n1-c1ccccc1,1.8
8,C/C(N)=C(/C#N)C(=O)COC(=O)c1ccc(C)c(S(=O)(=O)N2CCCCC2)c1,-0.308
9,Cc1ccc(S(=O)(=O)N2CCN(C(=O)Cc3ccccc3)CC2)cc1,-0.0535
10,CCOC(=O)NC(=O)COC(=O)Cc1cc(OC)c(OC)c(OC)c1,-1.05
11,COc1ccc(C(=O)NCCc2nnc(SCC(=O)Nc3ccccc3)n2C)cc1,-0.936
12,O=C(NC(NCC1CCCO1)C(Cl)(Cl)Cl)c1cccc2ccccc12 (stereo not drawn),-0.0963
13,Cc1ccnc(SCC(=O)N2CCN(C(c3ccccc3)c3ccccc3)CC2)n1,-0.763
14,COCc1nnc(NC(=O)CCCCCN2C(=O)c3ccccc3C2=O)s1,-0.344
15,Cc1c(Cl)cccc1NC(=S)NCc1cccn1C,0.262
16,CCS(=O)(=O)c1nc(S(=O)(=O)c2ccc(Cl)cc2)c(N2CCc3ccccc3C2)s1,-0.0847
17,CC1=C(C(=O)Nc2ccc([N+](=O)[O-])cc2)C(c2cccc(C(F)(F)F)c2)NC(=S)N1c1ccccc1 (stereo not drawn),0.425
18,CN(CC(=O)NCc1cccnc1)S(=O)(=O)c1ccc2c(c1)c(=O)n(C)c(=O)n2C,-0.043
19,CCOc1ccc(N2C(=O)CC(N3CCC(NC(=O)Nc4ccccc4)CC3)C2=O)cc1 (stereo not drawn),-0.945
20,CCSc1nc2ccccc2n1C(=O)/C=C\c1ccc(OC)c(OC)c1,-0.365

# Source: PubChem BioAssay AID488969 (Vanderbilt High Throughput Screening Facility, 2010)
